The text below walks through data of publication PMC5308261.

Amino acid sequences for entries named in this document (tags omitted). A change or cut given only in a name is not applied to a line headed by its entry.
UniProt P52129: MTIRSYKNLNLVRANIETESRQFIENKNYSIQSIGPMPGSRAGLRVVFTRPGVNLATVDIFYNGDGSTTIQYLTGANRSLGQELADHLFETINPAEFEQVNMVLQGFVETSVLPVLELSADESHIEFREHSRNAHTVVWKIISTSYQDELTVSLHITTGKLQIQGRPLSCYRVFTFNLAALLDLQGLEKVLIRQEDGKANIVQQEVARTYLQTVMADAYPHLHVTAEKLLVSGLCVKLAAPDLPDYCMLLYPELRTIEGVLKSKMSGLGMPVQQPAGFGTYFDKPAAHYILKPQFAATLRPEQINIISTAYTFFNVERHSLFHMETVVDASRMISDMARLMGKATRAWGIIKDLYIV

No constants are given. Whether binding was seen depends on the method and setting. Binding seen in cells or lysates may run through a third protein. Some binding calls cover weakened binding; strength is not graded here. Tags and fused reporters may be left off the sequences shown.

Assay [1] deals with T1, His-tagged RNase HI (E. coli) (UniProt P0A7Y4).
T1 sequence: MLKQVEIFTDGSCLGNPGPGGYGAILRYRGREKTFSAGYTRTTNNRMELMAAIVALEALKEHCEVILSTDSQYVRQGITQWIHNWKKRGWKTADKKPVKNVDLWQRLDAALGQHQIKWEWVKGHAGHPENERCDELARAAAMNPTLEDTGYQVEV
Nature of the assay: pull-down; Ni-NTA agarose pull-down of His-RNase HI from 1 mg extract of ΔrnlAB ΔrnhA cells co-expressing a FLAG-tagged RnlA protein; overnight at 4 °C; washes with 10 mM Tris-HCl pH 7.5, 10 mM Mg(OAc)2, 30 mM KCl, 0.5 mM DTT, 20 mM imidazole; western blot anti-FLAG and anti-His; NRD also tested with RNase A treatment (Figure S1A).

The target in assay [2] is T2, His-tagged RnlB antitoxin (Escherichia coli K-12) (UniProt P52130).
T2 sequence: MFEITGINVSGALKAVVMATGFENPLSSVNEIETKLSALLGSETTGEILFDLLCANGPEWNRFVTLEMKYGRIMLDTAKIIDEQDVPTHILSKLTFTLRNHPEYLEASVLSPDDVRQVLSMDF
As to the kind of experiment: pull-down; Ni-NTA agarose pull-down of His-RnlB from extract of ΔrnlAB cells (endogenous RNase HI present) co-expressing a FLAG-tagged RnlA protein; overnight at 4 °C; washes with 20 mM imidazole; western blot anti-FLAG and anti-His; NRD also tested for independence of RNA (Figure S1B).

The target of assay [3] is T2, His-tagged RnlB antitoxin (Escherichia coli K-12). Nature of the assay: pull-down; Ni-NTA agarose pull-down of His-RnlB from extract of ΔrnlAB ΔrnhA cells (no RNase HI) co-expressing a FLAG-tagged RnlA protein (Figure 5A; Figure 5B lane 6 with empty vector pQE80L'); western blot anti-FLAG and anti-His.

With “FLAG-tagged DBD (Dmd-Binding Domain) of RnlA (from UniProt P52129 198-357) (domain or fragment)”, the binding entry is given as “no binding” in assay [1], “binds” in assay [2] and “binds” in assay [3].
Turning to “FLAG-tagged NRD (N-Repeated Domain) of RnlA (from UniProt P52129 91-197) (domain or fragment)”, the binding entry is listed as “binds” in assay [1] and “binds weakly” in assay [3].
On to “FLAG-tagged NTD (N-Terminal Domain) of RnlA (from UniProt P52129 1-90) (domain or fragment)”, for which the binding result in assay [1] is reported as “no binding”.
For the substance “FLAG-tagged NTD-NRD of RnlA (from UniProt P52129 1-197) (domain or fragment)”, the binding entry is listed as “binds” in assay [1] and “binds weakly” in assay [3].
